Data taken from PubChem BioAssay AID504466 (National Center for Advancing Translational Sciences (NCATS), 2011).
About 4,200 (1.3%) of roughly 330,000 compounds were called active. The inconclusive results got no clear call from the source; some entries with a clear call stand among them for comparison. Calls come from the whole dose curve; as a rule, active = well fitted activation curve with a large enough effect; inconclusive = small, poorly fitted or top-dose-only effect; inactive = no such curve, though single readings can be large or run the other way. Where the call is inconclusive, the potency comes from a doubtful curve fit.

assay: qHTS screen for small molecules that induce genotoxicity in human embryonic kidney (HEK293T) cells expressing luciferase-tagged ELG1; details: HEK293T ELG1-luciferase reporter, luminescence, 16 h; series mostly up to 46 µM; note: nearly all actives have a fitted effect of over 60% in size
Summary of the method: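 Screening used a luciferase reporter fused to human ELG1 in HEK293T cells. Luminescence was read on a CCD plate imager after 16 hr exposure and 30 min ONE-Glo incubation.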
Potency is the fitted concentration of half-maximal effect; tags give direction and shape of the fitted curve.

| SMILES | Potency |
| --- | --- |
| COc1ccc(NC(=O)CC2C(=O)N(c3cccc(OC)c3)C(=O)N2CCC(C)C)cc1 (configuration not stated) | inactive |
| N#Cc1ccccc1OCC(=O)Nc1ccc2c(c1)OCCO2 | inconclusive: 11.6 µM [activator, partial curve, poor fit] |
| Cc1nccc(-c2sc(-c3cccs3)nc2C)n1 | inconclusive: 16.4 µM [activator, partial curve, poor fit] |
| CSc1nsc(SCC(=O)Nc2ccc(F)cc2F)n1 | inconclusive: 18.3 µM [activator, partial curve, poor fit] |
| Cc1ccc(Cl)c(NC(=O)CSc2n[nH]c(=O)n2C2CC2)c1Cl | inactive |
| Cc1ccc(-c2noc(CCC(=O)N3CCCC3)n2)cc1 | inconclusive: 23.1 µM [activator, partial curve, poor fit] |
| COc1ccc(/C(C)=N/Nc2ccccc2Cl)c(O)c1 | inconclusive: 23.1 µM [activator, partial curve, poor fit] |
| O=C(OCC(=O)N1CCCc2ccccc21)c1cccnc1Cl | inactive |
| C/C(=N\NC(=O)CC(C)C)c1c(C(F)(F)F)[nH]n(-c2nc3ccccc3s2)c1=O | inconclusive: 20.6 µM [activator, partial curve] |
| O=C(CCN1C(=O)/C(=C/C=C/c2ccccc2)SC1=S)Nc1nc2ccccc2s1 | inactive |
| CC(=O)Cn1ncc(N(C)Cc2ccccc2)c(Cl)c1=O | inconclusive: 13 µM [activator, partial curve, poor fit] |
| Cn1nc(Oc2ncc(C(F)(F)F)cc2Cl)cc1C(F)(F)F | inactive |
| CC(=O)c1ccc(NC(=O)CCc2nnc3ccc(N4CCCC4)nn23)cc1 | inconclusive: 23.1 µM [activator, single point] |
| COc1ccc(S(=O)(=O)N2CCC(C(=O)N[C@@H](C)C(=O)NCc3cccc(OC)c3)CC2)cc1 | inactive |
| Cc1ccc(SC/C(O)=C(\C#N)c2nc3ccccc3n2C)cc1 | inconclusive: 29.1 µM [activator, single point] |
| CCOc1cc(C(=S)N2CCOCC2)ccc1OS(=O)(=O)c1ccccc1[N+](=O)[O-] | inactive |
| O=c1c([N+](=O)[O-])c(N2CCOCC2)c2ccccc2n1Cc1ccccc1 | inactive |
| O=C(CN1CCN(c2ccc(F)cc2)CC1)NCC1CCCO1 (configuration not stated) | inactive |
| CSc1ccccc1NC(=O)c1cc(C2CC2)on1 | active: 23.1 µM |
| Cc1ccnc(SCC(=O)N2CCc3ccccc32)n1 | inconclusive: 16.4 µM [activator, partial curve] |
| Cc1ccc(NCCc2ccc(C)nc2)cc1 | inconclusive: 14.6 µM [activator, partial curve, poor fit] |
| CCCCn1c(SCC(=O)Nc2cc(C(F)(F)F)ccc2Cl)nnc1C(CC)N(C)C (configuration not stated) | inactive |
| CCn1c(C(=O)NC2CCC(C)CC2)cc2sccc21 (configuration not stated) | inconclusive: 14.6 µM [activator, partial curve, poor fit] |
| O=C(Nc1ccc(CN2CCOCC2)cc1)c1ccc(-c2ccc(Cl)cc2Cl)o1 | inactive |

| SMILES | Potency |
| --- | --- |
| CC(C)c1ccc2nc3sc(C(=O)N4CCc5ccccc5C4)c(N)c3cc2c1 | inactive |
| Clc1ccc(/C=N/Nc2ncnc3nc[nH]c23)cc1 | active: 16.4 µM |
| Clc1ccc(Oc2ncnc3oc(-c4ccccc4)cc23)cc1 | inactive |
| CCOC(=O)CSc1nc(C)c(C(C)=O)cc1C(N)=O | inactive |
| C/C(=N/NC(=O)c1ccoc1C)c1cccc(NC(=O)C(F)(F)F)c1 | inconclusive: 23.1 µM [activator, partial curve, poor fit] |
| O=[N+]([O-])c1ccc(/C=N/Nc2nc3ccccc3o2)cc1 | inconclusive: 7.3 µM [activator, partial curve, poor fit] |
| Cc1cccc(N2CC(=O)N(c3cccc(C)c3)CC2=O)c1 | inactive |
| O=C(Nc1ccccc1F)c1ccc(Cn2cc(Cl)cn2)cc1 | inconclusive: 23.1 µM [activator, partial curve, poor fit] |
| COCC(=O)Nc1ccccc1C(=O)Nc1ccc(OC)cc1 | inconclusive: 14.6 µM [activator, partial curve, poor fit] |
| CCOc1ccc(Nc2cc3n(c(=O)n2)CCc2cc(OC)c(OC)cc2-3)cc1 | inconclusive: 16.4 µM [activator, partial curve, poor fit] |
| Cc1nn(C(C)C(=O)N2CCCCC2)c(=O)c2c1sc1ccccc12 (configuration not stated) | inactive |
| C=CCn1nnc2sc3c(c2c1=O)CCC(C)C3 (configuration not stated) | inconclusive: 11.2 µM [activator, partial curve, poor fit] |
| Cc1cccc(/C=N/NC(=O)c2cccc([N+](=O)[O-])c2)n1 | inconclusive: 29.1 µM [activator, partial curve, poor fit] |
| CC(=O)Nc1ccc(NC(=O)C(C)OC(=O)CCC(=O)c2ccc(F)cc2)cc1 (configuration not stated) | inconclusive: 18.4 µM [activator, partial curve, poor fit] |
| CCCCCC(O)c1cccc(OCc2ccc3ccccc3n2)c1 (configuration not stated) | inconclusive: 32.6 µM [activator, partial curve, poor fit] |
| COc1ccc(-c2c(C)nc3c(-c4ccc(F)cc4)cnn3c2N)cc1 | inconclusive: 2.06 µM [activator, partial curve] |
| O=C1CCCCCN1Cc1nnc(SCc2nc3ccccc3s2)n1-c1ccccn1 | inconclusive: 23.1 µM [activator, single point] |
| COc1ccc(C2CC23N=C(c2ccccc2)OC3=O)cc1 (configuration not stated) | inconclusive: 29.1 µM [activator, single point] |
| O=C(Nc1ccccc1Cl)c1cc(=O)c2ccccc2o1 | inconclusive: 2.06 µM [activator, partial curve, poor fit] |
| Cc1ccccc1CSc1nnc(-c2ccncc2)o1 | inactive |
| COc1ccc2nc(NC(=S)N(C)C)sc2c1 | active: 0.82 µM |
| COC(=O)c1ccc(N2CCN(C)CC2)c(NC(=O)c2ccc(-c3ccc(Cl)cc3)o2)c1 | inactive |
| N#Cc1cn(-c2ccccc2)nc1-c1ccc2c(c1)OCCO2 | inconclusive: 2.59 µM [activator, full curve] |
